Patent US20060052582A1 (published 2006)

Target: T1, FLAG Nercc (1-739) (human, UniProt Q8TD19 1-739)
T1 sequence: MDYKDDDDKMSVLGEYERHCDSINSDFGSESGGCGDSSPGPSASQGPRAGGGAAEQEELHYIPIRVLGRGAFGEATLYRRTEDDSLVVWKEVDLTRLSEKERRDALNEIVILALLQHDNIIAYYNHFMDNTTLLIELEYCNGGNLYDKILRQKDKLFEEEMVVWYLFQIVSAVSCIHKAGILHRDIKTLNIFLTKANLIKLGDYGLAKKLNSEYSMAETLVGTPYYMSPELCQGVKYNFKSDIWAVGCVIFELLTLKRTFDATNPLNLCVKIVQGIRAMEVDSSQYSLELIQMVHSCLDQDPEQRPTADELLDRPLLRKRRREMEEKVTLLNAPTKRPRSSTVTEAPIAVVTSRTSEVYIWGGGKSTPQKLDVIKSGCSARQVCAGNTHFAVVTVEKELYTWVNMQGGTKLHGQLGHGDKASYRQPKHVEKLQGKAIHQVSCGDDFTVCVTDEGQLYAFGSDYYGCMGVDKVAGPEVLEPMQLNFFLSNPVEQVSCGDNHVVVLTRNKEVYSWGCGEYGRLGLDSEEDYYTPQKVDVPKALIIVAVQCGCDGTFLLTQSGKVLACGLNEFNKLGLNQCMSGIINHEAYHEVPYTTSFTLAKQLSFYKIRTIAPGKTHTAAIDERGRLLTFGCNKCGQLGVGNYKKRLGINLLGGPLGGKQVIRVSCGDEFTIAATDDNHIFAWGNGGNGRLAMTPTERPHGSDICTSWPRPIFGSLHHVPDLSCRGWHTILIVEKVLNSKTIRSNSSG
Test: GSH-agarose pull-down from co-transfected 293 cells, anti-FLAG blot
Method: Inasmuch as the p120 Nercc kinase was identified as a protein that co-purified with the protein kinase Nek6, it was of interest to confirm this association by co-expression of a GST Nek6 fusion protein and a FLAG Nercc fusion protein in 293 cells. Several fusion proteins of full-length and truncated Nercc1 and Nek6 were prepared to test the interaction between Nercc and Nek6 using antibodies to FLAG and GST. Recombinant GST Nek6 fusion protein was affinity purified on glutathione (GSH)-agarose, and the eluate was probed with anti-FLAG antibody.

B1: GST Nek6 (enzyme)
chain: [letters of about 200 residues left out]SDLVPRGSPGMAGQPGHMPHGGSSNNLCHTLGPVHPPDPQRHPNTLSFRCSLADFQIEKKIGRGQFSEVYKATCLLDRKTVALKKVQIFEMMDAKARQDCVKEIGLLKQLNHPNIIKYLDSFIEDNELNIVLELADAGDLSQMIKYFKKQKRLIPERTVWKYFVQLCSAVEHMHSRRVMHRDIKPANVFITATGVVKLGDLGLGRFFSSETTAAHSLVGTPYYMSPERIHENGYNFKSDIWSLGCLLYEMAALQSPFYGDKMNLFSLCQKIEQCDYPPLPGEHYSEKLRELVSMCICPDPHQRPDIGYVHQVAKQMHIWMSST
notes: Expressed in 293 cells (pEBG) for pull-downs; also called wild type GST Nek6; GST Nek6 fusion protein
B1: no binding.
